Experimental data published in PubChem BioAssay AID924 (National Center for Advancing Translational Sciences (NCATS), 2007).
Hit rate of the full screen: of about 130,000 compounds, about 1,200 (0.92%) were called active. The shares of active, inactive and inconclusive entries below differ from those in the screen. Calls come from the whole dose curve; as a rule, active = well fitted cell-killing curve with a large enough effect; inconclusive = small, poorly fitted or top-dose-only effect; inactive = no such curve, though single readings can be large or run the other way. Potencies beside an inconclusive call are fits to weak or partial responses and may not hold up.

Assay: qHTS Screen for Compounds that Selectively Target Cancer Cells with p53 Mutations: Cytotoxicity of p53ts Cells at the Permissive Temperature; note: nearly all actives have a fitted effect of over 55% in size;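 for activity change, negative = cytotoxicity: 0% = DMSO and -100% = full killing by reference compound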
Conditions: H1299-p53A138V at 32C, ATP luminescence viability, 24 h; activity change, negative = cytotoxicity: at 46.1 µM (top of the series)
Procedure, shortened: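 H1299-p53 A138V cells (temperature-sensitive p53) exposed 24 h to up to 46 uM compound at 32C, where p53 is wild-type in conformation. Viability read as ATP luminescence and normalised to DMSO and 100 uM tamoxifen. AC50 fitted with the Hill equation.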
Potency is the fitted concentration of half-maximal effect; tags give direction and shape of the fitted curve.

SMILES	Potency	activity change, negative = cytotoxicity
Cc1ccc(NC(c2cccc(Cl)c2)c2nnc(-c3ccccc3)o2)cc1F (configuration not stated)	inactive	–
CCOC(=O)CNC(=O)CSc1nnc(COc2ccc(Cl)cc2)n1CC	inconclusive: 20 µM [cytotoxic, single point]	–
COc1ccc2oc(=O)c(-c3nc4ccc(C)cc4[nH]3)cc2c1	inactive	–
COc1cccc(NC(=O)CSc2nnc(NC(=O)NC3CCCCC3)s2)c1	active: 11.2 µM	–
CCc1ccccc1N1CC(c2nc3ccccc3n2CCC2CCCCC2)CC1=O (configuration not stated)	inconclusive: 31.6 µM [cytotoxic, single point]	–
Cn1c(=O)c2c(c3ccccc31)OC(=O)CC2c1ccccc1 (configuration not stated)	inconclusive: 1 µM [cytotoxic, single point]	–
c1ccc(-c2noc(-c3ccc4ccccc4c3)n2)cc1	inconclusive: 7.94 µM [cytotoxic, partial curve]	–
Nc1c(C(=O)NCc2ccco2)nnn1-c1ccccc1	inconclusive: 12.6 µM [cytotoxic, single point]	–
Cc1cc(N2CCN(C)CC2)nc2ccc(NC(=O)Nc3ccccc3Cl)cc12	active: 10 µM	–
COCCNC(=O)CCSCc1ccccc1F	inactive	–
COc1ccc(NC(=O)c2oc3ccc4c(c3c2C)C(=O)CC(C)(C)O4)cc1OC	active: 10 µM	–
COc1cc(NC(=O)c2ncn[nH]2)cc(OC)c1OC	inconclusive: 2.51 µM [cytotoxic, full curve, poor fit]	–
O=C(c1cc2ccccc2o1)c1nc2c(n1O)CCCCC2	inconclusive: 12.6 µM [cytotoxic, partial curve]	–
CC(=O)Nc1ccc(-c2nnc3n(CC(C)C)c(=O)c4ccccc4n23)cc1	inactive	–
COc1ccc(-c2[nH]c(-c3ccccc3)nc2SCC(=O)Nc2ccc3c(c2)OCO3)cc1	inconclusive: 35.5 µM [cytotoxic, single point]	–
O=c1cc(-c2ccccc2)oc2cc(O)c(O)c(O)c12	inconclusive: 3.98 µM [cytotoxic, partial curve]	–
Cc1ccc(NC(=O)c2ccc3c(=O)n4nc(Nc5ccccc5C)sc4nc3c2)cc1C	active: 12.6 µM	–
O=C(Nc1ccc(F)cc1)c1cccc(N2CCCS2(=O)=O)c1	inactive	–
COc1cccc(-c2csc(N3CCN(C(=O)Nc4ccc(F)cc4)CC3)n2)c1	inconclusive: 12.6 µM [cytotoxic, partial curve]	–
COCCNc1ncnc2ccc(-c3cccc(NS(C)(=O)=O)c3)cc12	inactive	–
CSc1cccc(NC(=O)c2ccc3c(c2)CCCN3S(C)(=O)=O)c1	active: 12.6 µM	–
CCCCCCn1c(/C=C/c2ccccc2)nc2ccccc21	inconclusive: 12.6 µM [cytotoxic, single point]	–
Cc1ccc(NC(=O)Cc2coc3c(C)c(C)ccc23)c(C)c1	inactive	–
c1ccc(Nc2ncnc3c2oc2ccccc23)cc1	inactive	–

SMILES	Potency	activity change, negative = cytotoxicity
CCSc1nnc(NC(=O)c2cccc(OCc3c(C)noc3C)c2)s1	inactive	–
O=C(CC1Nc2ccccc2NC1=O)c1ccccc1 (configuration not stated)	inconclusive: 12.6 µM [cytotoxic, partial curve]	–
CC(=O)c1ccc(N2CCN(S(=O)(=O)c3ccc(-c4cnc(C5CC5)o4)cc3)CC2)cc1	inconclusive: 15.8 µM [cytotoxic, single point]	–
COC(=O)[C@H](Cc1ccccc1)NC(=O)C/C=C\[C@@H](C)[C@@H](CO)OC	–	inactive: 0.532% [at 9.22 µM]
N#C/C(=C\c1ccc(O)c(O)c1)C(=O)NCCc1ccccc1	inconclusive: 10 µM [cytotoxic, partial curve]	–
CCc1ccc2occ(CC(=O)NCc3ccccc3)c2c1	inconclusive: 35.5 µM [cytotoxic, single point]	–
COc1ccc(OCCCn2c(C)nc3cc(C)c(C)cc32)cc1	inconclusive: 7.08 µM [cytotoxic, full curve, poor fit]	–
CCOC(=O)c1ccc(NC(=O)C(CC)Sc2nncn3c2cc2oc(C)cc23)cc1 (configuration not stated)	inactive	–
COC(=O)c1c(-c2cccnc2)csc1NC(=O)c1cc(C)on1	inconclusive: 20 µM [cytotoxic, single point]	–
Cc1ccc2nc(-c3cccnc3)oc2c1	inconclusive: 12.6 µM [cytotoxic, partial curve]	–
Cc1nc(-c2ccc(F)cc2)sc1CCNC(=O)c1ccco1	inactive	–
CCOC(=O)c1cc(-c2ccccc2)n(CCCC(=O)Nc2cccc(Cl)c2C)c1C	inconclusive: 0.005 µM [cytotoxic, full curve, poor fit]	–
CSc1ccc(CCNC(=O)C(C)n2c(C)c3cnn(-c4ccccc4)c(=O)c3c2C)cc1 (configuration not stated)	inactive	–
COc1cc(OC)cc(C(=O)Nc2c(C(=O)Nc3ccc(F)cc3)oc3ccccc23)c1	inconclusive: 7.94 µM [cytotoxic, partial curve]	–
NCCNc1ncnc2ccc(Cl)cc12	–	inactive: 6.32% [at 9.22 µM]
COc1ccc(O)c(-c2cc(-c3cccc(Br)c3)n[nH]2)c1	inconclusive: 31.6 µM [cytotoxic, single point]	–
O=C(CC(c1ccccc1)c1cc(Br)ccc1O)NCC1(c2ccccc2)CCCC1 (configuration not stated)	inconclusive: 31.6 µM [cytotoxic, single point]	–
CC1CCc2onc(C(=O)N3CCN(c4cccc(C(F)(F)F)c4)CC3)c2C1 (configuration not stated)	inactive	–
COc1cccc2sc(Nc3nnc(-c4cccs4)o3)nc12	inconclusive: 12.6 µM [cytotoxic, single point]	–
O=c1c(O)c(-c2ccccc2)oc2cccc(O)c12	inconclusive: 31.6 µM [cytotoxic, single point]	–
N=c1c2c(-c3ccccc3)c(-c3ccccc3)n(Cc3ccco3)c2ncn1Cc1ccco1	inconclusive: 31.6 µM [cytotoxic, single point]	–
CCCc1cc(=O)n2[nH]c(-c3ccc(C)cc3)nc2n1	inconclusive: 15.8 µM [cytotoxic, partial curve]	–
Cc1ccc(NC(=O)C2CCCN(c3nnc(-n4c(C)ccc4C)s3)C2)cc1Cl (configuration not stated)	inactive	–
CS(=O)(=O)c1nc(-c2cccs2)cc(C(F)(F)F)n1	inconclusive: 31.6 µM [cytotoxic, single point]	–

SMILES	Potency	activity change, negative = cytotoxicity
Clc1ccc(CSc2ncnc3c2ncn3[C@@H]2CCCCO2)cc1	–	inactive: -1% [at 9.22 µM]
Cc1ccc2oc(=O)c3cnn(CC(=O)N(CCCN4CCOCC4)Cc4ccco4)c3c2c1	inconclusive: 31.6 µM [cytotoxic, single point]	–
COCC(=O)Nc1ccc(Nc2ccccc2)cc1	inactive	–
O=C(NCCCc1nc2ccccc2n1Cc1ccc(Cl)cc1)c1ccco1	inactive	–
Cc1cc(C(=O)Nc2nc3ccc(S(C)(=O)=O)cc3s2)c(C)o1	inconclusive: 12.6 µM [cytotoxic, partial curve]	–
COc1ccc(CCNC(=O)C(=O)NCC(c2ccco2)S(=O)(=O)c2ccccc2)cc1OC (configuration not stated)	inactive	–
O=C(CSc1nnc(SCc2ccc(Cl)cc2)s1)N1CCOCC1	inconclusive: 20 µM [cytotoxic, single point]	–
O=S(=O)(Nc1cccc(-c2ccc(N3CCCCC3)nn2)c1)c1ccc(Cl)s1	active: 10 µM	–
CCCNC(=O)c1cc(-c2ccc(OC)cc2)on1	inconclusive: 31.6 µM [cytotoxic, single point]	–
Cc1c(C)n(C)c2ccc(C(=O)NCCCN3CCCCC3)cc12	inactive	–
Cc1cc(N2CCN(C(c3ccccc3)c3ccc(Cl)cc3)CC2)n2ncnc2n1 (configuration not stated)	inconclusive: 31.6 µM [cytotoxic, single point]	–
Cc1ccc(Nc2nnc(SC/C(O)=C(\C#N)c3nc4ccccc4[nH]3)s2)c(C)c1	inconclusive: 10 µM [cytotoxic, partial curve]	–
CCCCNC(=O)c1c[nH]c2ccc(S(=O)(=O)Nc3ccc(OCC)cc3)cc2c1=O	inconclusive: 31.6 µM [cytotoxic, single point]	–
CCC(=O)Oc1ccc(-c2nc3ccccc3c(=O)o2)cc1	inconclusive: 12.6 µM [cytotoxic, partial curve]	–
Cc1ccc(-n2ncc(C(=O)N3CCN(Cc4ccccc4)CC3)c2C2CCN(C(=O)OC(C)(C)C)CC2)c(C)c1	inactive	–
CC1CCN(CCNC(=O)c2ccc(Cn3c(SCc4ccccc4)nc4cccnc43)cc2)CC1	inconclusive: 12.6 µM [cytotoxic, partial curve]	–
OC[C@H]1O[C@@H](n2cnc3c(NCc4ccccc4)ncnc32)[C@H](O)[C@@H]1O	active: 6.31 µM	–
CCN1CCC(N(Cc2ccc3c(c2)OCO3)C(=O)Nc2ccc(Br)c(C)c2)CC1	inconclusive: 22.4 µM [cytotoxic, single point]	–
Cc1cc(C=C2C(=O)CCCC2=O)c(C)n1-c1ccccc1	inconclusive: 0.0089 µM [cytotoxic, full curve, poor fit]	–
Cc1cccc(N2CCN(C(=O)C3CCN(c4nnc(-n5cccc5)s4)CC3)CC2C)c1 (configuration not stated)	inconclusive: 20 µM [cytotoxic, single point]	–
COc1ccccc1N1CCN(C(CNC(=O)C(=O)NCCc2ccccc2)c2cccnc2)CC1 (configuration not stated)	inactive	–
Cc1cccc(CS(=O)(=O)c2ncc(Cl)c(C(=O)NCc3ccccc3)n2)c1	active: 25.1 µM	–
CCOC(=O)c1ccc(Nc2ncnc3nc[nH]c23)cc1	inconclusive: 3.16 µM [cytotoxic, partial curve, poor fit]	–
CC1(C)COCN1S(=O)(=O)c1ccc(C(=O)Nc2nnc(-c3ccc(Cl)s3)o2)cc1	inconclusive: 1.58 µM [cytotoxic, partial curve, poor fit]	–
